Assay results published in paper PMC4336329 (PLoS ONE, 2015).
Among all 310,000 compounds or so, about 14,000 (4.5%) showed an effect of 50% or more. The effect is printed as a negative number. This is one part of the list.

target: human ether-à-go-go-related gene (hERG) potassium channel (human, UniProt Q12809); assay: primary screen, population patch clamp on CHO cells stably expressing hERG
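Also: peak tail current of the secondary pulse compared with the same well before compound.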

Chain of human ether-à-go-go-related gene (hERG) potassium channel (Q12809 whole entry, looked up): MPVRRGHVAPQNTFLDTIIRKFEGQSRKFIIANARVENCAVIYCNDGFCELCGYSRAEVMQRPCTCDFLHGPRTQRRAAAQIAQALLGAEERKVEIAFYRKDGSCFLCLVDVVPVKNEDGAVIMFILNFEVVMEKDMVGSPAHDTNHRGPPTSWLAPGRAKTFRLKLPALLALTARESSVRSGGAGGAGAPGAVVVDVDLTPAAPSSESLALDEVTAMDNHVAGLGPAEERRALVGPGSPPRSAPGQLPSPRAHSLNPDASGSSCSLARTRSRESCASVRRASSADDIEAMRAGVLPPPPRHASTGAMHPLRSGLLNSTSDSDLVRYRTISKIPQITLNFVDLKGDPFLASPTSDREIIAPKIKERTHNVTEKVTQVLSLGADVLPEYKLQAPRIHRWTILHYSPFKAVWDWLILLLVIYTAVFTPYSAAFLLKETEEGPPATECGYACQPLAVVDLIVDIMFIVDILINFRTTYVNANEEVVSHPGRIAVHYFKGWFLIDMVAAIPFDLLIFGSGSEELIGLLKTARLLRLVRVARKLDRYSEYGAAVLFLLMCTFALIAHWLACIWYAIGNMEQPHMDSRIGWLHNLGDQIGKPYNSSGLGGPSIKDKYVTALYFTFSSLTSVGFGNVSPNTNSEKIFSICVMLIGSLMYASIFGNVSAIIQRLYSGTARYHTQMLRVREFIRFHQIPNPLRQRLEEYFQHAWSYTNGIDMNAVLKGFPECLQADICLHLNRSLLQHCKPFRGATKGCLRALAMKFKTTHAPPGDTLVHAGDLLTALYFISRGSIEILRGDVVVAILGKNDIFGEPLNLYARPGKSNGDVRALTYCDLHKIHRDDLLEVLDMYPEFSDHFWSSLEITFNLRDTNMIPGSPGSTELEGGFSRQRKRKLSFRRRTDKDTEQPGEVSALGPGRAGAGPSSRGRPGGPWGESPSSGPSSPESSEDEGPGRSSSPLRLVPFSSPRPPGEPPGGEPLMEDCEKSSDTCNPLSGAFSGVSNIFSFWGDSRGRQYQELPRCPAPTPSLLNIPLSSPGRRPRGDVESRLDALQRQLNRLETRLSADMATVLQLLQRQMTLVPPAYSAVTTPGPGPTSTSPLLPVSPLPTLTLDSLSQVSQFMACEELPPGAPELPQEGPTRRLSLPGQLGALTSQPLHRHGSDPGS

Row | Structure (SMILES) | hERG current change (%, negative = inhibition) at 10uM [%]
1 | CC(=O)Nc1ccc(OCC(O)Cn2nc(C)c(C)c2C)cc1 (centres unmarked) | 11.5
2 | CC1CCN(c2ccc3nnc(CCC(=O)NCCCOC(C)C)n3n2)CC1 | 2.68
3 | O=C(NC1CCCCCC1)c1cccc(COCC(F)(F)F)c1 | -14
4 | O=C1N(CCCN2C(=O)C3(OCCO3)c3ccccc32)c2ccccc2C12OCCO2 | -1.41
5 | CCc1ccccc1NC(=O)Nc1cc(F)ccc1F | -0.245
6 | CC1CCN(C(=O)Cn2c(SCC(=O)Nc3nccs3)nc3ccccc32)CC1 | -18.8
7 | COc1ccccc1N1CCN(/N=C/c2cc(Br)ccc2F)CC1 | 9.43
8 | CC(C)n1c(N2CCN(CC(=O)NCc3cccs3)CC2)nc2ccccc21 | -60.8
9 | CC(C)C(OC(=O)c1cccs1)C(=O)NCc1ccccc1 (centres unmarked) | 4.34
10 | CC1(C)NC(=O)N(CC(=O)N2CCN(S(=O)(=O)c3ccccc3C(F)(F)F)CC2)C1=O | 14
11 | COC(=O)C1=C(C)N(CCCC(=O)O)C(=O)NC1c1cccc(OC)c1 (centres unmarked) | 3.7
12 | COc1ccccc1C(=O)N1CC2(C)CC1CC(C)(C)C2 (centres unmarked) | 6.53
13 | Cc1ccc(-n2nnnc2-c2cnoc2-c2cccc(F)c2)cc1 | -13.6
14 | COc1cccc(N2CCN(C(=S)Nc3ccccc3)CC2)c1 | 19
15 | Cc1ccnc(NC(=O)Cc2c(F)cccc2Cl)c1 | 0.992
16 | CCC1(C)Cc2c(sc3nc(NC)n(C)c(=O)c23)CO1.Cl (centres unmarked) | 5.53
17 | COc1cc(CN2CCCCCC2)cc([N+](=O)[O-])c1O | 10.1
18 | CC(Oc1ccc(C(=O)c2ccc(F)cc2)cc1)C(=O)N1CCOCC1 (centres unmarked) | 10
19 | Cc1cc(C)c(C#N)c(SCc2nnc(-c3ccccc3[N+](=O)[O-])o2)n1 | 3.4
20 | CCCc1nc(NC(=O)c2ccccc2)nc(NC(=O)c2ccccc2)n1 | -48.6
21 | COc1ccc(C(=O)N/N=C/c2ccc(OC(=O)c3cccs3)cc2)cc1 | 10.2
22 | O=C(COc1ccccc1)Nc1ccc([N+](=O)[O-])cc1 | 1.57

Row | Structure (SMILES) | hERG current change (%, negative = inhibition) at 10uM [%]
23 | CCOc1ccccc1NC(=O)COC(=O)COc1c(Cl)cc(Cl)c2ccc(C)nc12 | 21.7
24 | COC(=O)c1ccccc1NC(=O)CN1C(=O)c2ccccc2S1(=O)=O | 2.35
25 | CCOc1ccc(CCNC(=O)CCc2nc(-c3ccc(OC)cc3)no2)cc1OCC | 9.11
26 | O=C(C1CCCN1S(=O)(=O)c1cccc2nsnc12)N1CCCCCC1 (centres unmarked) | 7.97
27 | CCN(CC)S(=O)(=O)c1ccc(C(=O)Nc2nnc(-c3ccco3)o2)cc1 | 9.76
28 | CCOC(=O)C1=C(COC(=O)CNC(=O)c2cc(OC)c(OC)c(OC)c2)NC(=O)NC1C (centres unmarked) | -5.35
29 | O=C(CSCc1cc(=O)n2ccsc2n1)Nc1ccccc1 | 5.23
30 | O=C(NNC(=O)C1CC(c2cccs2)=NO1)Nc1ccc(Cl)cc1 (centres unmarked) | 17.4
31 | CCOC(=O)[C@H]1[C@H]2COc3ccc(Cl)cc3[C@@H]2N2C(=O)c3cc(F)c(F)cc3NC(=O)[C@@]12C | -1.29
32 | CC1(C)Oc2ccc(C(=O)N/N=C/c3ccc(O)cc3)cc2NC1=O | 11
33 | N#Cc1cc2c(nc1SCC(=O)N1CCOCC1)CCCCC2 | 6.83
34 | CC(=O)Nc1ccc(NC(=O)CC(c2ccccc2)c2ccccc2)cc1 | 22.6
35 | Cc1c(C=O)c2ccccc2n1Cc1ccccc1 | -2.16
36 | COc1cc(C(O)c2nc3ccccc3n2C(C)C)cc(OC)c1OC (centres unmarked) | 7.53
37 | Cc1ccc(NC(=O)c2cnn(-c3ccccc3)c2C)c(C)c1 | -0.951
38 | O=C(c1c[nH]c(C(=O)C(Cl)(Cl)Cl)c1)c1ccc(F)cc1Cl | 13.4
39 | O=C(Nc1ccccc1)c1ccc(Br)c(S(=O)(=O)Nc2ccccn2)c1 | 14.5
40 | C=C1N(c2ccccc2)C(=O)OC1(C)C | 3.85
41 | Cn1ncc(Cl)c1C(=O)N1CCN(S(=O)(=O)c2ccc(F)cc2)CC1 | -14.8
42 | CCOC(=O)N(Cc1ccccc1)C(C(=O)O)C(C(=O)O)N(Cc1ccccc1)C(=O)OCC (centres unmarked) | 13.3
43 | CCOc1ccc(N2C(=O)c3ccccc3C2O)cc1 (centres unmarked) | -3.04
44 | O=C(NCCN1CCOCC1)C(=O)NCC1OCCN1S(=O)(=O)c1cc(F)ccc1F (centres unmarked) | 14.1
